Assay results: PubChem BioAssay AID445 (National Center for Advancing Translational Sciences (NCATS), 2006)
Hit rate of the full screen: of about 110,000 compounds, about 40 (0.04%) were called active. Inconclusive results, whose numbers are uncertain, are shown with a selection of clear calls. Calls follow the shape of the dose curve; as a rule, active = well fitted curve in the direction sought with a large enough effect in the signal ratio (not every such curve was filed as active); inconclusive = small, poorly fitted or top-dose-only effect, or a change in a side signal; inactive = flat fitted curve, though single readings scatter; the % refers to the signal ratio. Potencies of inconclusive entries are doubtful fits and often do not repeat.

assay: IkB Signaling; settings: ABC-DLBCL IkBa-CBG/CBR dual luciferase ratio (green luciferase fused to IkBa over red control in OCI-Ly3 lymphoma cells), 4 h; IkBa stabilization activation: at 57.1 µM (top of the series), scaled: untreated 0%, proteasome inhibitor 100% unless noted;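 as to IkBa stabilization activation: 0% = basal untreated cells and 100% = reference inhibitor full response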
Procedure, shortened: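 Luminescence ratio of IκBα-fused green versus native red beetle luciferase in OCI-Ly3 cells, 4 h post-doxycycline with compound; red signal alone, scaled from basal (0%) to zero light (-100%), flagged nonspecific or cytotoxic effects.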
Potency is read from the fitted curve at half-maximal effect.

Question: For `CC(CNC(=O)CCS(=O)(=O)c1ccc2c(c1)oc(=O)n2C)c1ccccc1` (stereo not given), which IkBa stabilization activation is on record?
Answer: inconclusive: 1.3% [signal inhibitor]

Question: Which IkBa stabilization activation does the source give for `COc1cccc2sc(N3CCN(C(=O)CCS(=O)(=O)c4ccc(F)cc4)CC3)nc12` here?
Answer: inconclusive: 8.66% [signal inhibitor]

Question: For `COc1ccc(C(c2nnnn2C2CCCC2)N2CCC(C)CC2)c(OC)c1` (stereo not given), which IkBa stabilization activation is on record?
Answer: inconclusive: 3.61% [signal inhibitor]

Question: With `Cc1ccc(CNC(=O)C(=O)NCC(c2cccnc2)N2CCN(c3ccccc3F)CC2)cc1` (stereo not given) as the molecule, how does the IkBa stabilization activation read?
Answer: inconclusive: -3.6% [signal inhibitor]

Question: For `Cc1ccc(NC(=O)Cn2nnc(C(=O)NCCc3ccccc3)c2N)cc1C`, which IkBa stabilization activation is on record?
Answer: inconclusive: -1.43% [signal inhibitor]

Question: Which Potency does the source give for `Cc1ccc(C(=O)Nc2nc(-c3ccccc3)ns2)cc1` here?
Answer: inconclusive: 31.6 µM [signal activator]

Question: For `CCc1ccc(C2NC(=O)c3[nH]nc(-c4cccc(OC)c4)c32)cc1` (stereo not given), which IkBa stabilization activation is on record?
Answer: inconclusive: 7.49% [signal inhibitor]

Question: For `O=C(C1CCN(S(=O)(=O)c2cccnc2)CC1)N1CCN(c2ccccc2Cl)CC1`, which IkBa stabilization activation is on record?
Answer: inconclusive: 1.06% [signal inhibitor]

Question: With `CS(=O)(=O)N1CCc2cc(C(=O)Nc3cccc(F)c3)ccc21` as the molecule, how does the IkBa stabilization activation read?
Answer: inactive

Question: With `COc1ccccc1CC(=O)Nc1ccc2nc(N3CCC(C)CC3)cc(C)c2c1` as the molecule, how does the IkBa stabilization activation read?
Answer: inconclusive: 2% [signal inhibitor]

Question: For `CCc1ccc(-n2c(CCC(=O)O)ccc2-c2ccc(F)cc2)cc1`, which IkBa stabilization activation is on record?
Answer: inconclusive: 6.69% [signal inhibitor]

Question: Which IkBa stabilization activation does the source give for `COc1cc2c(=O)n(CCC(=O)NCC3CCCO3)c(=O)n(CC(=O)Nc3ccc(F)cc3)c2cc1OC` (stereo not given) here?
Answer: inconclusive: 9.31% [signal inhibitor]

Question: Which IkBa stabilization activation does the source give for `CC(=NC1CCCCC1)C1=C(O)c2ccccc2C1=O` here?
Answer: inconclusive: -1.9% [signal inhibitor]

Question: With `Cc1ccc(O)c(NC(=O)CCS(=O)(=O)c2nc(-c3ccc4c(c3)OCO4)cc(C(F)(F)F)n2)c1` as the molecule, how does the Potency read?
Answer: inconclusive: 5.01 µM [signal inhibitor, single point]

Question: With `Cc1c(C(=O)NCc2ccc3c(c2)OCO3)oc2ccc(S(=O)(=O)N3CCCC3)cc12` as the molecule, how does the IkBa stabilization activation read?
Answer: inconclusive: 0.125% [signal inhibitor]

Question: With `CCc1ccc(CNC(=O)CCn2c(=O)c3cccn3c3ccc(F)cc32)cc1` as the molecule, how does the IkBa stabilization activation read?
Answer: inconclusive: 1.21% [signal inhibitor]

Question: For `CCOc1ccccc1NC(=O)COc1ccc(S(=O)(=O)NC2CCCCC2)cc1`, which IkBa stabilization activation is on record?
Answer: inconclusive: 9.51% [signal inhibitor]

Question: With `NC(=O)c1oc2ccccc2c1NC(=O)c1nc2ccccc2s1` as the molecule, how does the IkBa stabilization activation read?
Answer: inconclusive: 11.5% [signal inhibitor]

Question: For `O=C(Nc1ccc(F)c(F)c1)C1CCCN1S(=O)(=O)c1cccc2nsnc12` (stereo not given), which IkBa stabilization activation is on record?
Answer: inactive

Question: For `O=S(=O)(c1ccccc1)c1nc(-c2ccc(F)cc2)oc1N1CCCCCC1`, which IkBa stabilization activation is on record?
Answer: inconclusive: 1.91% [signal inhibitor]

Question: For `O=C(CSc1nnc2ccccn12)c1ccc2c(c1)OCCO2`, which IkBa stabilization activation is on record?
Answer: inactive

Question: Which IkBa stabilization activation does the source give for `CCc1nnc(NC(=O)CSc2nc3c(c(=O)n2C)SC(C)C3)s1` (stereo not given) here?
Answer: inactive

Question: For `COc1ccc(-c2cc(-c3ccc(OC)cc3)[nH]n2)cc1`, which IkBa stabilization activation is on record?
Answer: inconclusive: -1.13% [signal inhibitor]

Question: With `COc1cc(C2c3c(-c4cc(C)cc(C)c4O)n[nH]c3C(=O)N2CCCO)cc(OC)c1OC` (stereo not given) as the molecule, how does the IkBa stabilization activation read?
Answer: inactive

Question: With `CCOC(=O)c1ccc(-c2ccc(/C=C(\C#N)C(=O)Nc3ccc(C)cc3OC)o2)cc1` as the molecule, how does the IkBa stabilization activation read?
Answer: inconclusive: 12% [signal inhibitor]

Question: Which IkBa stabilization activation does the source give for `CCCCN1C(=O)C(O)(c2c(C)[nH]c3ccccc23)c2ccccc21` (stereo not given) here?
Answer: inconclusive: 5.99% [signal inhibitor]

Question: For `COCCNC(=O)Cn1ncc2c(C)n(Cc3ccc(C)cc3)c(C)c2c1=O`, which IkBa stabilization activation is on record?
Answer: inconclusive: 1.76% [signal inhibitor]

Question: Which IkBa stabilization activation does the source give for `CCOc1ccc(C(=O)c2cn(Cc3ccc(F)cc3)c3ccc(F)cc3c2=O)cc1` here?
Answer: inconclusive: 0.329% [signal inhibitor]

Question: Which IkBa stabilization activation does the source give for `Cc1cccc(-n2ncc3c(N4CCCCCC4)ncnc32)c1` here?
Answer: inconclusive: -2.17% [signal inhibitor]

Question: For `CSc1ccc(C2c3c(oc4ccccc4c3=O)C(=O)N2CCCN2CCOCC2)cc1` (stereo not given), which IkBa stabilization activation is on record?
Answer: inactive

Question: Which IkBa stabilization activation does the source give for `CC(C)(C)C(=O)OC1=CN(Cc2ccccc2)S(=O)(=O)c2ccccc21` here?
Answer: inconclusive: 1.62% [signal inhibitor]

Question: Which IkBa stabilization activation does the source give for `CCOC(=O)Cc1nnc(NC(=O)CSc2nnc3c4ccccc4n(C(C)C)c3n2)s1` here?
Answer: inactive

Question: For `O=C(CN1C(=O)C2(SCC(=O)N2c2ccc(F)cc2)c2ccccc21)NCCc1ccccc1` (stereo not given), which IkBa stabilization activation is on record?
Answer: inconclusive: 1.4% [signal inhibitor]

Question: With `COc1cccc(Cn2c(=O)cnc3cnc(OC)nc32)c1` as the molecule, how does the IkBa stabilization activation read?
Answer: inactive: 0.601% [at 11.4 µM, scaled: untreated 0%, proteasome inhibitor 100%]

Question: Which IkBa stabilization activation does the source give for `CCCCN(CCCC)C(=O)CSc1nnc(-c2cc(OC)c(OC)c(OC)c2)o1` here?
Answer: inconclusive: 5.1% [signal inhibitor]

Question: For `Cc1cc(C)cc(Nc2cc(C(=O)NCc3ccccc3)c3ccccc3n2)c1`, which IkBa stabilization activation is on record?
Answer: inconclusive: -1.91% [signal inhibitor]

Question: Which IkBa stabilization activation does the source give for `Nc1nc(Nc2ccccc2)nc2ccccc12` here?
Answer: inconclusive: 3.81% [signal inhibitor]

Question: For `O=C(Nc1ccccc1C(F)(F)F)c1cc2ccccn2n1`, which IkBa stabilization activation is on record?
Answer: inactive

Question: Which IkBa stabilization activation does the source give for `Cc1cc(C)c(NC(=O)C(C)n2nnc3sc(-c4ccccc4)cc3c2=O)c(C)c1` (stereo not given) here?
Answer: inconclusive: 3.01% [signal inhibitor]

Question: With `CCOc1cc(CNCCSc2nnnn2-c2ccccc2)ccc1OC` as the molecule, how does the IkBa stabilization activation read?
Answer: inactive

Question: Which IkBa stabilization activation does the source give for `CC(C)CC(c1nnnn1Cc1ccco1)N1CCN(C2CCCC2)CC1` (stereo not given) here?
Answer: inactive

Question: For `O=C(O)c1cc(-c2ccc3c(c2)OCO3)nc2ccccc12`, which IkBa stabilization activation is on record?
Answer: inactive

Question: With `O=c1c2ccccc2nc(SCc2nnc(-c3ccccc3)o2)n1-c1ccccc1` as the molecule, how does the IkBa stabilization activation read?
Answer: inconclusive: -1.3% [signal inhibitor]

Question: With `O=C(Nc1ccc2oc(-c3cccc(Cl)c3Cl)nc2c1)c1cccc(Br)c1` as the molecule, how does the IkBa stabilization activation read?
Answer: inactive

Question: With `COc1ccc2c(c1)[C@]1(C)CCC[C@](C)(CO)[C@@H]1CC2` as the molecule, how does the IkBa stabilization activation read?
Answer: inactive: 2.88% [at 11.4 µM, scaled: untreated 0%, proteasome inhibitor 100%]
